Data as given in the RNAGym collection of RNA variant scans (doi:10.7554/elife.90254).
The source gives no read counts; variants with many changes may rest on few reads.

B1: LINE1-mini (parent)
chain: GGCAGAGCUCAACACAGCGUGGCAAAGUGGCUGUGGCUAGACUGCC

Variants of: B1
Assay: self-cleavage, relative activity (ratio to wild type); higher = more cleavage; in vitro, sequencing; the parent is a self-cleaving ribozyme

Variant	self-cleavage
GGCAGAGCUAAACACAGCGUGGCAAAGUUGCGGUUGCUAGAAUGCC [C10A G29U U32G G35U C42A]	0.02
GGCAGAGCUGAACAGAGCGUGGCAAAGUGGUUUUGGCUAGACUGCC [C10G C15G C31U G33U]	0.02
GGCAGAGCUGGACACAGCGUGGAAAAGUGGCUGUGGCUAGAAUGCC [C10G A11G C23A C42A]	0
GGCAGAGCUGAACUCAGCGUGGCAAAGGGGCUGUUGCUAGACUGCC [C10G A14U U28G G35U]	0.03
GGCAGAGCUGAACAUAGCGAGGCAAAGUGGCUGUGGCUAGACUGCA [C10G C15U U20A C46A]	0.02
GGCAGAGCUGAACACUGCGCGGCAAAGUGGCUGUGGCUAGACUGUC [C10G A16U U20C C45U]	0.04
GGCAGAGCUGAACACAGCGUGGCUAAGUGGCUGUAUCUUGACUGCC [C10G A24U G35A G36U A39U]	0.01
GGCAGAGCUGAACAGAGCGUGGCAAGGUGGCUGUGGCUAGACUGCC [C10G C15G A26G]	0.02
GGCAGAGCUGCACACAGCGUGGCAAAGUGGCUGUGGCUAGACUCCC [C10G A11C G44C]	0.02
GGCAGAGCUGAAAAAAGCGUGGCAACGUGGCUGUGGCUAGACUCCC [C10G C13A C15A A26C G44C]	0.01
GGCAGAGCUGAACAUAGGGUGGCAAAGUGGCUGUGGCUAGACCGCC [C10G C15U C18G U43C]	0.01
GGCAGAGCUGAACACAGAGUGGCAAAGUGGCUGUGGAUAGAUAGCC [C10G C18A C37A C42U U43A]	0
GGCAGAGCUAAACACAGCGUGGCAAAGUGGCUUUGGCUAGAGUGCC [C10A G33U C42G]	0
GGCAGAGCUAAACACAGCGUGGCAAAGUGACUGUGGCUACACUGCC [C10A G30A G40C]	0.57
GGCAGAGCUGAACACAGAGUGGCAAAGCGGCUGUAGCUAGGCUGCC [C10G C18A U28C G35A A41G]	0.01
GGCAGAGCUGAACACAGUGUGGCAAAGUGGCUGUGGCUAUACUGCC [C10G C18U G40U]	0.01
GGCAGAGCUGCACCCAGCGUGGCAAAGUGGCUGUGGCUAGACUGCC [C10G A11C A14C]	0.01
GGCAGAGCUGCAAACAGCGUGGCAAAGUGGCUGUCGCUAGACUGCC [C10G A11C C13A G35C]	0.03
GGCAGAGCUAAACACAGCGGGCCAAAGUGGCUGUGGCUAGAGUGCC [C10A U20G G22C C42G]	0.02

Variant	self-cleavage
GGCAGAGCUGAACACCGCGGGGCAAAGUGGCUGUGGCUAGAUUGCC [C10G A16C U20G C42U]	0
GGCAGAGCUGAACACAGCGUGGAAAAGUGGCUGUGGUUAGACUGCC [C10G C23A C37U]	0.02
GGCAGAGCUGAACACAGUGUGGCAAAGUGGCUGUGGCUUGACUGCC [C10G C18U A39U]	1.05
GGCAGAGCUAAACACAGCGUGGCAAACUGGCUGUGGAUAGACUGCC [C10A G27C C37A]	0.01
GGCAGAGCUAAACACAGCGUGGCAAAGUGGCUGUGCCUAGACUACC [C10A G36C G44A]	0.04
GGCAGAGCUGAUCAUAGGGUGGCAAAGUGGCUGUGGCUAGACUGCC [C10G A12U C15U C18G]	0.01
GGCAGAGCUGAACCCAGCGUGGCAAAGUCGCUGAGGCUAGACUGCC [C10G A14C G29C U34A]	0.04
GGCAGAGCUAAACACAGCGUGGCAAAGUGGCUGUGGCUAGACGGUC [C10A U43G C45U]	0.01
GGCAGAGCUGAACACAGCGUGGCUAACUGGCUUUGGCUAGACAGCC [C10G A24U G27C G33U U43A]	0.01
GGCAGAGCUGAACACUGCGUGGCCAAGUGGCUUUGUCAAGACUGCC [C10G A16U A24C G33U G36U U38A]	0.02
GGCAGAGCUGAACGCAGCGUGGUAAGGUGGCUGGGGCUACACUGCC [C10G A14G C23U A26G U34G G40C]	0.01
GGCAGAGCUGAACACGGCGUGGCAAAGUGUUUGUGGCUAGACUGCC [C10G A16G G30U C31U]	0.03
GGCAGAGCUAAACACAGCGAAGCAAAGUGUCUGUGGCUAUACUGCC [C10A U20A G21A G30U G40U]	0.01
GGCAGAGCUAAACACAGCGUGGCAAAGUGGCUGUGAUUAGACGUCC [C10A G36A C37U U43G G44U]	0.01
GGCAGAGCUGAACAAAGCGUGGCAAAGUGACUGUGGCUAGACUGCC [C10G C15A G30A]	0.02
GGCAGAGCUGAAGACAGCGUGGAAAAGUGGCUGUGGCUAGACUGCC [C10G C13G C23A]	0.03
GGCAGAGCUAAACACAGCGUGGCAAAGUGGCUGUUGCUAUACUGCU [C10A G35U G40U C46U]	0.01
GGCAGAGCUAAACACAGCGUGGCAAAGUGGCUAUAGCUAGUCUGCC [C10A G33A G35A A41U]	0.02
GGCAGAGCUGAACCCAGAGUGGCAAAGUGGCUGUGGCUAGACUGCC [C10G A14C C18A]	0.02

Variant	self-cleavage
GGCAGAGCUAAACACAGCGAUGCAAAGUGGCUGUGGCUAGACUGCC [C10A U20A G21U]	0.01
GGCAGAGCUAAACACAGCGUGGCAAAGUGGCUGUGGCUAGACUUCA [C10A G44U C46A]	0.03
GGCAGAGCUAAACACAGCGUGGCAAAGGGGCUGUGGCGAGACUGCC [C10A U28G U38G]	0.01
GGCAGAGCUGACCACAGCGUGGCAUAGUGGCUCUGGCUAGACUGCC [C10G A12C A25U G33C]	0.01
GGCAGAGCUGAACACAGCGUGGCAGAGUGGCUGCGACUAGACUGCC [C10G A25G U34C G36A]	0.01
GGCAGAGCUGAACACCGCGUGGCAAAGUGGAUGUCGCUAGCCAGCC [C10G A16C C31A G35C A41C U43A]	0.01
GGCAGAGCUGAACACAGAGUGGCAAACUGGCUGUGCCUAGACUGCC [C10G C18A G27C G36C]	0.02
GGCAGAGCUAAACACAGCGUGGCAAAGUGGCGGCGGCUAGACUGCC [C10A U32G U34C]	0.02
GGCAGAGCUGAACACAGAGUAGCAAAGUGGCUGUGGAUAGACUGCC [C10G C18A G21A C37A]	0.02
GGCAGAGCUGAAAACAGCGUGGAAAAGUGGCUGUAGCUAGACUGCC [C10G C13A C23A G35A]	0.02
GGCAGAGCUAAACACAGCGUGGCAAAGGGGCUGUGUCUAGACUGCC [C10A U28G G36U]	0.02
GGCAGAGCUGAACACAGCGUGGGAAAUUGGCUCUGACUAGACUGCC [C10G C23G G27U G33C G36A]	0.01
GGCAGAGCUGAGCAACGCGUGGCAAAGUGGCUGUGCCUAGAUGGCC [C10G A12G C15A A16C G36C C42U U43G]	0
GGCAGAGCUGAUCACAGCGUGGCAAUGUGACUGUGGCUAGUCUGCC [C10G A12U A26U G30A A41U]	0
GGCAGAGCUAAACACAGCGUGGCAAAGUGUCUUUGGCUAGACUGCC [C10A G30U G33U]	0.05
GGCAGAGCUAAACACAGCGGGGCAAAGUGGGUGUGGCCAGACUGCC [C10A U20G C31G U38C]	0.02
GGCAGAGCUAAACACAGCGUGGCAAACUGGCUGUGUCUAGACUGCC [C10A G27C G36U]	0.01
GGCAGAGCUGAACCCAACGUGGCAUAGUGGCUGUGGCUAGACUGCC [C10G A14C G17A A25U]	0
